Screen size: about 46,000 compounds; about 60 (0.1%) were called active. About 3% were inconclusive and are not listed. Calls follow the shape of the dose curve; as a rule, active = well fitted inhibition curve with a large enough effect; inconclusive = small, poorly fitted or top-dose-only effect; inactive = no such curve, though single readings can be large or run the other way. The list shows a part of the results.
experiment: Primary qHTS assay for Inhibitors of ovarian cancer metastasis using an organotypic tumor microenvironment (TME) model.; also: nearly all actives have a fitted effect of over 65% in size;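 as to activity change, negative = inhibition: plate controls were DMSO wells for no effect and tomatine positive control wells for full effect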; conditions: SKOV3ip1-GFP adhesion/invasion on 3D omental model, fluorescence; series mostly up to 45.8 µM; activity change, negative = inhibition: at the top concentration
Outline: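 qHTS, 4-pt dose (0.36-46 umol/L); SKOV3ip1-GFP, 1,200 cells/well, no FBS; primary omental fibroblast/mesothelial co-culture 48 h pre-grown; 2 h RT + 16 h 37 C; PBS wash, 4% PFA; GFP count 488/509 nm.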

Compound | activity change, negative = inhibition | outcome
CCOc1ccc(CNC(=O)CCn2nc(C)c3c(C)n(-c4ccccc4)nc3c2=O)cc1 | inactive: 11.2% | 
CCc1ccc(-n2c(=O)c3c(C)c(C(=O)N(C)C)sc3n(Cc3cccc(C)c3)c2=O)cc1 |  | inactive
COc1cccc(CNC(=O)CCS(=O)(=O)c2cc3c(cc2C)NC(=O)CO3)c1 |  | inactive
CCN(CCCNC(=O)c1nn(-c2ccc(C)cc2)c(=O)c2c1c1ccccc1n2C)c1ccccc1 | inactive: -5.73% | 
COc1c(Cl)cc(Cl)cc1/C=C(\C#N)c1nc2ccccc2[nH]1 |  | inactive
COc1ccc(C(=O)Nc2ccc3nc(SCc4ccc(C)cc4)sc3c2)cc1 | inactive: 0.955% | 
COc1ccccc1OCCCn1c(C2CC(=O)N(c3ccccc3Cl)C2)nc2ccccc21 (configuration not stated) | inactive: -5.33% | 
Cc1ccc(Cn2c(=O)n(Cc3nc(-c4ccccc4)no3)c(=O)c3cc4c(cc32)OCO4)cc1 | inactive: -0.0844% | 
Cc1ccccc1NC(=O)CCc1c(C)nn(-c2ccc(N3CCCCC3)nn2)c1C | inactive: 2.32% | 
Oc1ccccc1-c1nc(/C=C/c2ccccc2Cl)no1 | inactive: -13.8% | 
Cc1nc(-c2ccc(Cl)cc2)sc1CCNC(=O)c1ccco1 | inactive: -22.7% | 
Cc1ccc(-n2c(=O)c3c4c(sc3n(Cc3ccccc3F)c2=O)CCC4)cc1C |  | inactive
Cc1coc2cc3oc(=O)c(CC(=O)NCc4ccc(F)cc4)c(C)c3cc12 | inactive: 1.53% | 
Cc1ccc(O)c(-c2ccnc3cc(-c4ccc(Cl)cc4)nn23)c1 | inactive: -10.3% | 
COc1cc(-c2nc3sccn3c2Nc2cccc(C)c2)ccc1O | inactive: 0.634% | 
Cc1ccc2c(=O)c3cccc(CC(=O)O)c3oc2c1C | inactive: -5.63% | 
O=C(Nc1ccccc1)N1CCN(C(=O)c2nsc3ccccc23)CC1 |  | inactive
CC(=O)c1cccc(NC(=O)CCc2c(C)nc3c(-c4ccc(F)cc4)c(C)nn3c2C)c1 |  | inactive
Cc1cc(=O)n2nc(N3CCC(C(=O)Nc4ccc(C(C)C)cc4)CC3)sc2n1 |  | inactive
Fc1cccc(F)c1-c1nc(-c2ccncc2)no1 | inactive: 12% | 
Cc1ccc(CCNC(=O)CCn2c(=O)c3cccn3c3ccc(F)cc32)cc1 | inactive: -16.1% | 
COc1ccc(OC)c(NC(=O)Cn2cc(S(=O)(=O)c3ccccc3)c(=O)c3cc(C)ccc32)c1 | inactive: 11.3% | 
CCCc1nc2sc3c(N4CCCCC4)ncnc3c2c2c1CCCC2 | inactive: 9.19% | 
COc1ccc(NC(=O)Cn2c(=O)oc3cc(S(=O)(=O)NC(C)C)ccc32)cc1OC |  | inactive

Compound | activity change, negative = inhibition | outcome
CCOc1ccc(C(=O)c2cn(CC(=O)Nc3cc(OC)cc(OC)c3)c3ccc(F)cc3c2=O)cc1 |  | inactive
CCNC(=O)CC1C(=O)N(c2ccccc2)C(=O)N1Cc1ccc(F)cc1 (configuration not stated) | inactive: 3.76% | 
Cc1ccc(NC(=O)CSc2nc(-c3ccc(F)cc3)cc(C(F)(F)F)c2C#N)cc1 | inactive: -18.2% | 
O=C(CCn1c(=O)c2cccn2c2ccc(F)cc21)NCc1ccccc1F | inactive: 6.63% | 
Cc1cccc(NC(=O)Cn2c(=O)n(Cc3ccc(C(=O)NCc4ccc5c(c4)OCO5)cc3)c(=O)c3ccccc32)c1 |  | inactive
Cc1nnc(N2CCC(C(=O)NC(C)C)CC2)c2nn(-c3ccc(Cl)cc3)c(C)c12 | inactive: 9.5% | 
COc1ccccc1N1CCN(S(=O)(=O)c2ccc3c(c2)oc(=O)n3C)CC1 |  | inactive
CCCSCCCNC(=O)C1CCN(C(=O)c2cc3sccc3n2C)CC1 | inactive: -2% | 
COc1ccc(S(=O)(=O)N(Cc2nc(-c3cccc(C)c3)no2)C2CCCCC2)cc1 | inactive: 3.09% | 
Cc1ccccc1Cn1c(SCc2ccc(C(=O)NCc3cccs3)cc2)nc2ccncc21 | inactive: -11% | 
Cc1cccc(OCc2nnc(SCC(=O)Nc3ccc(C)cc3C)o2)c1 | inactive: 3.37% | 
Cc1ccccc1Cn1c(CCCNC(=O)C2CCCCC2)nc2ccccc21 |  | inactive
CCOc1ccc(-n2c(C)nc3c(cnn3-c3ccc(C)cc3)c2=O)cc1 | inactive: 0.94% | 
CCC(=C(c1ccc(O)cc1)c1ccc(OCCNC)cc1)c1ccccc1 | inactive: -4.74% | 
CC(=O)c1cccc(NC(=O)Cn2c(SCC(=O)Nc3ccc(F)cc3)nc3ccccc32)c1 | inactive: -9.33% | 
Cc1c2cnn(CC(=O)NCc3ccccc3)c(=O)c2c(C)n1Cc1cccc(Cl)c1 | inactive: 0.293% | 
O=S(=O)(c1ccc(-n2cnnn2)cc1)N1CCN(c2ccccc2F)CC1 |  | inactive
O=C(Nc1nc(-c2ccc(Br)cc2)ns1)c1ccc(F)cc1 |  | inactive
CCCCOc1ccc(C2c3c(-c4ccccc4O)n[nH]c3C(=O)N2Cc2ccncc2)cc1OC (configuration not stated) |  | inactive
CCC1CCCCN1S(=O)(=O)c1ccc(NC(=O)c2cc(=O)c3ccccc3o2)cc1 (configuration not stated) | inactive: 0.713% | 
CCN(CCCNC(=O)c1cc2c(=O)[nH]c3ccccc3c2s1)c1ccccc1 |  | inactive
N#C/C(=C\c1ccc(Cl)cc1)C(=O)NCC1CCCO1 (configuration not stated) | inactive: 0.0841% | 
Cn1cc(S(=O)(=O)c2ccccc2)c(=O)c2cc(F)c(N3CCOCC3)cc21 | inactive: 3.9% | 
